Measured values from PubChem BioAssay AID624296 (National Center for Advancing Translational Sciences (NCATS), 2012).
The campaign covered roughly 350,000 compounds. About 9,900 (2.8%) were called active. This list was built around the results that the source calls inconclusive (neither active nor inactive); the mix of calls is not that of the screen. Calls come from the whole dose curve; as a rule, active = well fitted activation curve with a large enough effect; inconclusive = small, poorly fitted or top-dose-only effect; inactive = no such curve, though single readings can be large or run the other way. Potencies of inconclusive entries are left out as doubtful fits.

Assay: A quantitative high throughput screen for small molecules that induce DNA re-replication in MCF 10a normal breast cells. For activity, positive = re-replication: % of control where 0% means no effect. Note: nearly all actives have a fitted effect of over 50% in size.
Settings: MCF 10A DNA re-replication, Hoechst nuclear intensity, 48 h; activity, positive = re-replication: at 46.1 µM (top of the series)
Potency is the fitted concentration of half-maximal effect; tags give direction and shape of the fitted curve.

Compound	Potency	activity, positive = re-replication
COc1ccc(NS(=O)(=O)c2ccc(O)c(NC(=O)c3cc4c(C)nn(-c5ccc(F)cc5)c4s3)c2)cc1	active: 8.2 µM	–
CC(C)C(C(=O)Nc1nccs1)N1C(=O)c2ccccc2C1=O (centres undefined)	–	inactive: -2.39%
CSc1nnc(C)c(/C=C/Nc2ccc(Cl)cc2)n1	inconclusive [activator, single point]	–
O=[N+]([O-])c1cc(/C=N/n2c(-c3ccncc3)n[nH]c2=S)ccc1Cl	inconclusive [activator, single point]	–
CN(C)C(=O)/C(=C/c1cn(-c2ccccc2)nc1-c1cccc([N+](=O)[O-])c1)NC(=O)c1ccccc1	–	inactive: 13.2%
CCOc1ccccc1NC(=O)C(OC(=O)c1cc(C)oc1C)c1ccccc1 (centres undefined)	inconclusive [activator, partial curve, poor fit]	–
CN1c2ccccc2-c2nc3ccccc3n2C1c1ccco1 (centres undefined)	inconclusive [activator, partial curve, poor fit]	–
O=C(CSc1ccc(-c2cccs2)nn1)NCCc1ccccc1	inconclusive [activator, partial curve, poor fit]	–
CC1Cc2ccccc2N1C(=O)CN(C)CC(=O)Nc1ccc(OC(F)(F)F)cc1 (centres undefined)	inconclusive [activator, single point]	–
CCCc1ccc(OCc2ccc(C(=O)N/N=C/c3cccnc3)o2)cc1	–	inactive: 3.74%
CCN(c1ccccc1)S(=O)(=O)c1cc(C(=O)Nc2ccc(Br)cc2)ccc1F	inconclusive [activator, single point]	–
COc1ccccc1CN1C[C@@H]2C[C@@H](c3ccc(Cl)cc3)N3CCC[C@@]23C1=O	–	inactive: 1.87%
O=C(c1cc2c(s1)CCC2)N1CCN(c2ccccc2)CC1	inconclusive [activator, partial curve, poor fit]	–
CCS(=O)(=O)N1CCC(C(=O)NCCCN2CCN(c3ccccc3F)CC2)CC1	inconclusive [activator, single point]	–
CN(C(=O)c1ccc(NC(=O)Cc2ccc(NC(=O)C3CCN(C(=O)C4CCC4)CC3)cc2)cc1)C1CC1	–	inactive: 19.8%
NS(=O)(=O)c1ccc(NC(=O)Nc2ccc(Cl)cc2)cc1	inconclusive [activator, single point]	–
CCCCNCc1cc(Br)c(OCc2cccs2)c(OC)c1	–	inactive: 2.76%
COCCn1c(SC(C)C(=O)NCC2CCCO2)nc2scc(-c3ccc(F)cc3)c2c1=O (centres undefined)	–	inactive: 7.58%
Cc1ccsc1/C=C1/SC(=O)N(CC(=O)N2CCOCC2)C1=O	–	inactive: -2.78%
O=C(NC(=O)N1CCCCC1)c1ccccc1	–	inactive: -1.58%
CCCOc1ccccc1Cn1c(=O)oc2ccc(C)cc21	inconclusive [activator, single point]	–
CCN(CC)c1ccc2nc3ccc(N)cc3[n+](-c3ccccc3)c2c1	inconclusive [activator, full curve, poor fit]	–
Cc1cccc(-c2cc(C(=O)Nc3ccncc3)c3ccccc3n2)c1	–	inactive: 9.16%

Compound	Potency	activity, positive = re-replication
FC(F)(F)c1cccc(N2CCN(C(=S)NC3CCCC3)CC2)c1	inconclusive [activator, single point]	–
Cc1ccc(S(=O)(=O)NC(=O)COc2ccccc2C)c(C)c1	inconclusive [activator, single point]	–
COc1ccc(CNC(=S)Nc2ccc3nc(N4CCOCC4)cc(C)c3c2)cc1	inconclusive [activator, single point]	–
Cc1cccc(-c2nnc(SCC(=O)O)n2Cc2ccccc2)c1	inconclusive [activator, partial curve, poor fit]	–
Cc1ccc(S(=O)(=O)N2CCC(C(=O)OC(C)C(=O)N(C)c3ccccc3)CC2)cc1C (centres undefined)	inconclusive [activator, single point]	–
Cc1[nH]c(C)c(Cl)c(=O)c1Cl	–	inactive: 0.0174%
Cc1onc(-c2ccccc2Cl)c1C(=O)NCc1nc(-c2ccccc2)no1	inconclusive [activator, partial curve, poor fit]	–
COc1ccc(/C=N/n2cnc3c([nH]c4ccc(F)cc43)c2=O)cc1CSc1ccccn1	inconclusive [activator, single point]	–
CCOCCCNC(=O)c1ccc(/C=C2\Oc3ccccc3N(C)C2=O)cc1	–	inactive: -3.5%
Cc1cc(Cl)c(S(=O)(=O)N2CCCC2)cc1OCC(=O)NC1CCCCC1	–	inactive: 8.92%
NS(=O)(=O)c1ccc(CNS(=O)(=O)c2ccc3ccccc3c2)cc1	inconclusive [activator, single point]	–
CCOc1cc(NC(=O)c2ccccc2OC)c(OCC)cc1NC(=O)c1ccccc1	inconclusive [activator, full curve, poor fit]	–
Cn1nc(CC(=O)Nc2cccc3ncccc23)c2ccccc2c1=O	inconclusive [activator, single point]	–
CNC(=O)NC(=O)CSc1nc2cc(C(=O)OC)ccc2c(=O)n1-c1ccccc1	inconclusive [activator, single point]	–
O=C(N/N=C\c1ccccc1)c1cccc(C(=O)N/N=C\c2ccccc2)n1	inconclusive [activator, single point]	–
COc1ccc(Cc2nnc(NC(=O)c3c(-c4ccccc4)noc3C)s2)cc1	inconclusive [activator, single point]	–
COc1cccc2sc(N(CCCN(C)C)C(=O)c3ccc(S(=O)(=O)N4CCCc5ccccc54)cc3)nc12	inconclusive [activator, single point]	–
O=C(Nc1ccc(-c2nc3ncccc3o2)cc1)c1ccc([N+](=O)[O-])o1	active: 2.91 µM	–
Fc1c(F)c(F)c(SCn2cc(Br)cn2)c(F)c1F	–	inactive: 1.35%
CCOC(=O)C1=C(Cc2ccc(Cl)cc2)C(=O)c2ccccc2C1=O	inconclusive [activator, single point]	–
Cc1ccc(NS(=O)(=O)c2ccc(NC(=O)c3cccs3)cc2)c(C)c1	inconclusive [activator, single point]	–
Brc1ccc2nc(-c3ccncc3)c(NC3CCCC3)n2c1	–	inactive: 7.86%
CC(C)CCNC(=O)C(c1ccncc1)N(C(=O)Cn1nnc(-c2ccc(F)cc2)n1)c1ccccc1F (centres undefined)	–	inactive: 4.32%

Compound	Potency	activity, positive = re-replication
CSc1n[nH]c2nc3c(c(=O)n12)C1(CCCC1)Cc1ccccc1-3	inconclusive [activator, full curve]	–
COc1cccc(C(=O)OCC(=O)NC(C)CCc2ccccc2)c1O (centres undefined)	–	inactive: -0.174%
O=C(COC(=O)c1cccnc1Cl)Nc1cccc(S(=O)(=O)N2CCOCC2)c1	inconclusive [activator, single point]	–
Cc1cc(NC(=O)CCC(=O)N(Cc2ccccc2)C2(C(=O)NC3CCCCC3)CCCC2)no1	inconclusive [activator, single point]	–
CCCOc1ccc(/C=C/C(=O)Nc2ccc([N+](=O)[O-])cc2)cc1	active: 14.6 µM	–
CN1Cc2c(N3CCOCC3)nc3sc(C(=O)c4ccc(Br)cc4)c(N)c3c2CC1(C)C	active: 18.4 µM	–
COc1ccccc1N=C(C)C1=C(O)CC(c2ccccc2)CC1=O (centres undefined)	inconclusive [activator, partial curve, poor fit]	–
O=C(Nc1ccc(Cl)cc1)Nc1csc([N+](=O)[O-])c1	inconclusive [activator, partial curve, poor fit]	–
CCN(CC)c1ccc(/C=N\NC(N)=O)cc1	–	inactive: -0.645%
COCCn1c(C)cc(C(=O)CSc2nc3ccccc3s2)c1C	–	inactive: 29.6%
COc1ccc(C(=O)c2sc3nc(C)cc(-c4cccs4)c3c2N)cc1	inconclusive [activator, partial curve, poor fit]	–
N/C(=N\OC(=O)c1ccc(Cl)cc1)c1ccc(Cl)cc1	–	inactive: -0.327%
O=C(O)C1(Nc2ccc([N+](=O)[O-])cc2[N+](=O)[O-])CCCC1	inconclusive [activator, partial curve, poor fit]	–
COc1cccc(C2Nc3cc(Cl)c(S(N)(=O)=O)cc3S(=O)(=O)N2)c1 (centres undefined)	–	inactive: -2.36%
COc1ccc(C(CC(=O)Nc2ccc(F)cc2)c2ccccc2)cc1 (centres undefined)	inconclusive [activator, single point]	–
O=C1NC[C@@H](Cc2cccc3ccccc23)N(CCCCC2CCCCC2)C1=O	inconclusive [activator, single point]	–
COc1ccc(C(=O)NCCS(=O)(=O)NC(C)c2ccccc2)cc1 (centres undefined)	–	inactive: -3.86%
COC(=O)c1ccc(CSc2nc3ccc(S(=O)(=O)N4CCOCC4)cc3[nH]2)cc1	inconclusive [activator, single point]	–
COc1ccc(C(=O)Nc2ccccc2N2CCOCC2)cc1S(=O)(=O)N1CCOCC1	–	inactive: -2.5%
Fc1ccc(C2c3[nH]c4ccccc4c3CCN2Cc2cccn2-c2ncccn2)cc1 (centres undefined)	inconclusive [activator, single point]	–
Cc1nc2c(c(C)nn2-c2ccccc2)c(C)c1CCC(=O)Nc1ccc(CN2CCCC2)cc1	inconclusive [activator, single point]	–
c1ccc2c(C[C@@H]3CNCCN3CC3CCCCC3)cccc2c1	inconclusive [activator, single point]	–
O=C(Cn1cnc2c(NCc3ccccc3)ncnc21)NCc1ccc2c(c1)OCO2	inconclusive [activator, full curve, poor fit]	–
